Data as given in patent publication US20170296668A1, “METHODS OF INCREASING SOLUBILITY OF POORLY SOLUBLE COMPOUNDS AND METHODS OF MAKING AND USING FORMULATIONS OF SUCH COMPOUND” (VIZURI HEALTH SCIENCES LLC, priority 2009, published 2017).
Converted amounts (≈) assume the structure as drawn. Read-outs that look alike come from different tables or passages of the source.

How the values were obtained:
[1] = Supersaturation test by addition of a crystal
[2] = Aqueous solution clarity: water added to concentrate vs non-concentrate method
[3] = Coenzyme Q10, Polysorbate 80 and jojoba oil solubility testing; assay type: physicochemical; settings: CoQ10 first solubilized in PS80 concentrate, about 2 hours
skin cancer = settings: anti skin cancer activities; cited from earlier work
[4] = cited from earlier work
[5] = Solubility of concentrates in oil solvents; assay type: physicochemical; settings: mineral, jojoba, canola, borage oils
[6] = Solubility in Polysorbate 80 via thermal treatment process; settings: HPLC-MS
[7] = Solubility of apigenin in propylene glycol and ethylene glycol; assay type: physicochemical; settings: for solubility: organic solvent or mixture, thermodynamic from solid
[8] = Solubility in PEG 400 / PEG 300 via thermal treatment process
[9] = crystal addition to cooled liquid
[10] = PS80 concentrate, more than 50 hours

## COc1cc(CNC(=O)CCCC/C=C/C(C)C)ccc1O [Capsaicin, reference compound]
[1]; [9]
  supersaturation of PEG 400 concentrate: not supersaturated
  supersaturation of PS80 concentrate: not supersaturated
[2]; PEG 400
  clarity, non-concentrate method (all ingredients with water heated to about 100° C.): opaque cloudy solutions
[2]; PEG 400 concentrate
  clarity after addition of 17 ml of water to the concentrate: opaque and cloudy
[2]; PS80
  clarity, non-concentrate method (all ingredients with water heated to about 100° C.): opaque cloudy solutions
[2]; [10]
  clarity after addition of 17 ml of water to the concentrate: A clear solution

## COC1=C(OC)C(=O)C(C/C=C(\C)CC/C=C(\C)CC/C=C(\C)CC/C=C(\C)CC/C=C(\C)CC/C=C(\C)CC/C=C(\C)CC/C=C(\C)CC/C=C(\C)CCC=C(C)C)=C(C)C1=O [CoQ10, Coenzyme Q10]
[3]
  distribution between water and Jojoba oil phases, Test 2: the water phase contained the CoQ10

## O=c1cc(-c2ccc(O)cc2)oc2cc(O)cc(O)c12 [Apigenin, 4′,5,7,-trihydroxyflavone]
[1]; Example 4, crystal addition
  supersaturation of cooled nonionic surfactant liquid: not supersaturated
Skin cancer
  concentration at which apigenin acts effectively: < 50 µM
[4]; 25° C., Li et al. 1997
  solubility in hydrophilic and lipophilic surfactants tested: 0.15 to 0.68 mg/mL
[4]; Table III
  Lit. H2O Sol. -: 0.002 mg/mL
[5]
  solubility in the test oils: insoluble
[6]
  concentration of apigenin in A/PS80: 4.05%
[7]; EG solution
  behaviour upon cooling to room temperature: appreciable apigenin precipitation
[7]; PG solution
  behaviour upon cooling to room temperature: appreciable apigenin precipitation
[7]; ethylene glycol, heated to about 190° C., read-out: concentration completely solubilized in EG
  solubility: 40 mg/mL (≈ 148 mM)
[7]; propylene glycol, heated to about 175° C., read-out: concentration completely solubilized in PG
  solubility: 40 mg/mL (≈ 148 mM)
[7]; saturated apigenin/EG solution
  behaviour after a few drops of water were added: a significant fraction of the solubilized apigenin precipitated out
[7]; saturated apigenin/PG solution
  behaviour after a few drops of water were added: a significant fraction of the solubilized apigenin precipitated out
[8]
  Molar Ratio PEG400/API (mole/mole): 21.7 mole/mole
[8]; PEG300, thermal treatment
  DPSI PEG300 Sol. Data: 35 to 45 mg/mL
[8]; thermal treatment
  DPSI PEG400 Sol. Data: 30 to 40 mg/mL

## CC(C)CCC[C@@H](C)[C@H]1CC[C@H]2[C@@H]3CC=C4C[C@@H](O)CC[C@]4(C)[C@H]3CC[C@]12C [Cholesterol]
[2]; Nonoxynol-9
  clarity, non-concentrate method (all ingredients with water heated to about 100° C.): opaque cloudy solutions
[2]; PEG 400
  clarity, non-concentrate method (all ingredients with water heated to about 100° C.): opaque cloudy solutions
[2]; PEG 400 concentrate
  clarity after addition of 17 ml of water to the concentrate: a cloudy opaque solution resulted
[2]; PS80
  clarity, non-concentrate method (all ingredients with water heated to about 100° C.): opaque cloudy solutions
[2]; [10]
  clarity after addition of 17 ml of water to the concentrate: remained clear
[2]; nonoxynol-9 concentrate, more than 50 hours
  clarity after addition of 17 ml of water to the concentrate: remained clear
